Measurements taken from the supplement of paper PMC10986608.
Where “and” joins values, the source holds several entries; their conditions need not be identical. Equal values may be shown once. Some of the results follow. Single values are uncertain, as repeats are few or missing.

Tested on: Candida albicans DPL-15
Assay: growth (OD600) after compound treatment (apparently relative to screen median) (relative growth (fraction; screen median 1.02)); DPL-15 is a caspofungin-resistant clinical isolate; higher = more fungal growth (less antifungal activity)
Settings: 25 µM; RPMI 1640; 48 h; 30 °C

Structure (SMILES) | growth
COC(=O)C1=C(C)N(Cc2ccc(C(F)(F)F)cc2)C(NCc2cc(OC)c(OC)c(OC)c2)=NC1c1cccc(Cl)c1 (centres undefined) | 0.854
COc1ccc(OC[C@H]2C=C(C)C[C@@]3(O2)C(=O)N(Cc2ccccc2)c2ccccc23)cc1 | 0.909
CC(=O)C1=C2C=CCCN2C(=O)NC1c1ccnc(F)c1 (centres undefined) | 1.1
C#CCOC[C@@H](NC(=O)[C@@H]1C[C@@H](O)CN1C(=O)c1cccc(-c2ccccc2/C=N/NS(=O)(=O)c2ccc(C)cc2)c1)c1ccccc1 | 1.02
CC(C)C[C@@H]1NC(=O)C[C@@H]2C[C@H](C)[C@H](c3ccccc3)N2C1=O | 1.03
COc1cccc(-c2cc(N)n(C)n2)c1 | 1.02
CC(C)Cc1nn(-c2ccc(OC(F)(F)F)cc2)c2c1C(c1ccccc1)NC2=O (centres undefined) | 0.937
COC(=O)C1=C(C(=O)OC)[C@@H](c2ccco2)O[C@@H]1c1ccccc1 | 1.11
COC(=O)C/C=C/[C@@H](C)[C@H](NC(=O)OCC(Cl)(Cl)Cl)c1ccccc1 | 0.919
C=CC[C@](C)(Nc1ccc(OC)cc1)C(=O)OCC | 0.982
COCCN1C(=O)[C@H]2C[C@@]13O[C@H](c1ccccn1)N=C3C[C@H](c1ccccc1)[C@H]2C | 1.04
COc1ccc(C#C[C@@H]2C=C[C@H](OC(C)=O)[C@@H](COC(C)=O)O2)cc1 | 0.884
Cc1cc(O)c2c(c1)OC(C=O)CC2=O (centres undefined) | 0.98
C=CCN1C(=O)C2=C(C(c3ccccc3)=NCCN2)C1c1ccccc1 (centres undefined) | 0.916
COc1cc2c(cc1OC)CN(CCc1ccc(NC(=O)c3cccc4c(=O)c5cccc(OCc6ccccc6)c5[nH]c34)cc1)CC2 | 0.933
CC(C)(C)NS(=O)(=O)OCCCc1ccccc1 | 1.1
COC(=O)c1[nH]c2ccccc2c1[C@]12CCN(C(=O)Cc3ccc(C)cc3)[C@H]1Nc1ccccc12 | 0.911
COc1ccc([C@]23Oc4cc(OC)cc(OC)c4[C@](O)([C@H](C(=O)OCc4ccccc4)[C@H]2c2ccccc2)[C@@H]3O)cc1 | 1.11
COc1ccccc1N1C(=O)c2[nH]nc(CC(C)C)c2C1c1ccsc1 (centres undefined) | 0.979
COc1ccc([C@H]2c3cc4c(cc3C[C@@H](C)[C@@H]2C)OCO4)cc1OC | 1.15
c1cc2c3c(ccc4c3c1OCO4)OCO2 | 1.06

Structure (SMILES) | growth
CC(C)c1nn(Cc2ccccc2)c2c1C(c1ccc3c(c1)OCO3)NC2=O (centres undefined) | 1.09
COc1ccc([C@@]23Oc4cc(OC)cc(OC)c4[C@]2(O)[C@@H]2OC(=O)[C@@H]2[C@H]3c2ccccc2)cc1 | 1 and 1.11
O=C(c1c(O)cc(O)cc1Nc1ccnn1Cc1ccoc1)N1Cc2ccccc2C1 | 1.03
COC(=O)c1cc2c(c3c4cc(OC)ccc4n(S(=O)(=O)c4ccc(OC)cc4)c13)C(=O)N(Cc1ccc(C)cc1)C2 | 0.99
c1ccc(COCn2c(-c3nc4nccnc4n3COCc3ccccc3)nc3nccnc32)cc1 | 1.04
COc1ccc(-c2oc3cc(OC)cc(OC)c3c(=O)c2O)cc1 | active: 0.18
CCCc1cc2c(OC)ccc(O)c2c(=O)o1 | 1.03
COc1ccc(-c2ccc3c(n2)CCCN3)cc1 | 1.05
CC1(C)[C@H](CO)[C@@H]1COCc1ccccc1 | 1.29
CNCCOc1ccc2c(c1)O[C@@]1(c3ccc(Cl)cc3)[C@H](c3ccccc3)C[C@H](O)[C@@]21O | 0.866
CC#Cc1cc(O)c(C)c(O)c1 | 1.1
CCOC(=O)C1C=CC=CC=C1 | 1.09
COc1cc(CNC(=O)CCCCc2ccccc2)ccc1O | 0.934
CCNC1=NC(c2ccc(F)cc2)C(C(=O)OC)=C(C)N1Cc1cccc(C(F)(F)F)c1 (centres undefined) | 0.975
COC(=O)[C@@H]1[C@@H](c2ccccc2)[C@]2(c3ccc(OC)cc3)Oc3cc(OC)cc(OC)c3[C@@]23NC(C2CCC2)=N[C@@]13O | 0.86
CO[C@@H]1[C@H](O)CC[C@]2(O)CN(c3ccc4c(c3)OCO4)[C@](C)([C@H](O)CC=C(C)C)[C@@H]12 | 0.868
CC(C)=CCc1cc(OCC(=O)NCC(=O)NCc2ccccc2O)cc2oc3cccc(O)c3c(=O)c12 | 1.08
COC(=O)[C@H]1[C@@H](O)[C@@]2(O)c3c(OC)cc(OS(=O)(=O)c4ccc(C)cc4)cc3O[C@@]2(c2ccc(OC)cc2)[C@@H]1c1ccccc1 | 1.11
COc1cccc(Oc2cc(F)c(F)cc2C(=O)O)c1OCc1ccccc1 | 1.04
COC(=O)C1=C(C)N(Cc2ccc(C(F)(F)F)cc2)C(NCc2ccncc2)=NC1c1ccc(Cl)cc1 (centres undefined) | 1.01
COC(=O)c1c(Br)cc(OC)cc1OC | 1.01

Structure (SMILES) | growth
O=C1N[C@H](c2ccccc2)COCc2cn[nH]c2-c2cccc(n2)C(=O)N2C[C@H](O)C[C@@H]12 | 1.09
COC(=O)[C@@H](N[C@H](/C=C/c1ccccc1)[C@@H](O)Cc1ccccc1)c1ccccc1 | 0.979
COC(=O)C1=C(C)[C@@]2(C)C[C@@H]3[C@@]4(C)CC[C@H](O)C(C)(C)[C@@H]4CC[C@@]3(C)[C@@](C)(C1=O)C2=O | 1.08
c1ccc(CN2CCc3nc(-c4ccccc4)c(-c4ccccc4)cc3C2)cc1 | 0.962
CC(=O)C1=C(C)NC(=O)NC1c1ccccc1 (centres undefined) | 1.06
CCO[C@@H]1CCN(C(=O)c2c(O)cc(O)cc2Nc2cc(C)nn2C)C1 | 1.1
O=C(O)Cc1cccc2c(=O)c3ccccc3oc12 | 1.15
COc1cc(OC)c(C(=O)[C@@H]2CC=C(CCC=C(C)C)C[C@H]2c2ccccc2)c(OC)c1 | 1.07
COc1ccc(C2=C[C@@]3(c4ccc5c(c4)OCO5)[C@@H]4C(=O)[C@](C)(O)[C@@H](C=C4C(C)C)[C@H]3C2=O)cc1 | 1.19
CCCCCC#CCN1C(=O)NC(c2ccccc2)C(C(=O)OC)=C1C (centres undefined) | 0.954
C#CCC(C)(C)CNC(=O)CC1(CNC(=O)c2cccc(CO)c2)CCCCC1 | 1.02
COc1ccc(C2=C(C(=O)NCC(C)C)C3C(N2)C(=O)C[C@@H](c2ccccc2)[C@@H]3C)cc1 (some centres undefined) | 0.962
COc1ccc(N2C(=O)c3[nH]nc(CC(C)C)c3C2C2CCCCC2)cn1 (centres undefined) | 0.966
CC(C)CCc1c(O)cc(O)c(C(=O)CC(C)C)c1O | 1.09
OC1c2ccccc2-c2c1c1c3c(ccc4c3c2OCO4)OCO1 (centres undefined) | 0.9
C[C@H]1CC(O)=C2C(=O)c3c(O)cccc3O[C@@]2(C(=O)O)[C@@H]1O | 1.83
CC(C)(C)NS(=O)(=O)NCCC1CCCC1 | 1.2
Cc1cc(C)cc(-n2nc(CC(C)C)c3c2C(=O)NC3c2ccc3c(c2)OCO3)c1 (centres undefined) | 0.746
Cc1cc(C)cc(-n2nc(C)c3c2C(=O)NC3c2ccc(Br)cc2)c1 (centres undefined) | 0.924
COC(=O)[C@@H]1[C@@H](C(=O)OC)[C@H](c2cc(OC)c(OC)c(OC)c2)[C@H]1c1cc(OC)c(OC)c(OC)c1 | 1.14
CC1=C[C@H](COc2ccc(Br)cc2)O[C@]2(C1)C(=O)Nc1ccccc12 | 0.809

Structure (SMILES) | growth
CC(C)Cc1n[nH]c2c1C(c1cccc(C(F)(F)F)c1)NC2=O (centres undefined) | 0.719
COC(=O)C1=C(C)C(=O)[C@]2(O)Oc3c(C)c(O)c(C(=O)OC)c(C)c3[C@]2(C)C1=O | 1.04
CCN1C(=O)N[C@@H](c2ccc(Br)cc2)C(C(C)=O)=C1C | 0.976
CCN(CC)C(=O)c1c(O)cc(O)cc1Nc1cc(-c2ccccc2)nn1Cc1ccc(OC)cc1 | 0.979
COc1ccc(Cn2nc(C)cc2Nc2cc(O)cc(O)c2C(=O)N(C)CC=C(C)C)cc1 | 1.13
c1ccc(-c2nc3cnncc3[nH]2)cc1 | 1.16
C[Si](C)(C)C#Cc1cc(O)c2c(=O)c3ccccc3oc2c1 | 1.1
CC(C)(C)Oc1cccc(-c2ccccc2)n1 | 1.04
CCCCCOS(=O)(=O)Nc1ccc2sccc2c1 | 0.938
C[Si](C)(C)C#CCOc1c(-c2ccccc2)oc2ccccc2c1=O | 0.961
CO[C@@H]1[C@H](O)CC[C@]2(O)CN(c3cccc(C#N)c3)[C@@H](CC=C(C)C)[C@](C)(O)[C@@H]12 | 0.909
COc1ccc(N2C(=O)c3c(c(C)nn3C)C2c2ccccc2)cc1 (centres undefined) | 0.98
COc1ccc(C[C@H](CO)[C@@H](CO)Cc2ccc(OC)cc2)cc1 | 1.05
C=CCN1C(=O)CC[C@@]23C1=NC(C(=O)OC)=C(C(=O)OC)[C@@H]2N(CC#CC)c1ccccc13 | 0.918
CS(=O)(=O)Oc1c(C[C@@]23CCCCC2=Nc2ccc(C(F)(F)F)cc23)occc1=O | 1.17
COc1ccc(CCn2ccc3nc4cc(O)cc(O)c4c(=O)n32)cc1 | 1.21
CC(C)Cc1n[nH]c2c1C(c1ccccc1Cl)N(c1ccc(-n3ccnc3)cc1)C2=O (centres undefined) | 0.989
COC(=O)Cc1nnn2c1[C@H](C)[C@@H](OC)C2 | 1.23
CCc1ccccc1-n1nc(CC(C)C)c2c1C(=O)NC2c1ccc(F)cc1 (centres undefined) | 1.01
O=C1C=C(c2ccccc2)CC1c1ccc([N+](=O)[O-])cc1 (centres undefined) | 0.987
COc1cc([C@H]2c3c(OC)c(O)c4[nH]c5ccccc5c(=O)c4c3[C@@H]3C=C(C)CC(C)(C)[C@H]23)c2c(=O)c3ccccc3[nH]c2c1O | 0.916
